About 800 (1.6%) of roughly 50,000 compounds showed an effect of 50% or more. The list shows a part of the results.

This test addresses Bcl-2-like protein 10 (Homo sapiens) (UniProt Q9HD36). Kind of test: Phenotype converters, Bcl-B/TR3 peptide binding displacement, primary biochemical FP (AID 1240).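 Note: 0% = Bcl-B with tracer peptide and DMSO and 100% = tracer peptide lacking Bcl-B.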 To be noted: GST-Bcl-B / FITC-TR3 peptide fluorescence polarization; stronger effect = higher value; compound at 3.75 mg/L.
Chain of UniProt Q9HD36 (Q9HD36 whole entry, looked up): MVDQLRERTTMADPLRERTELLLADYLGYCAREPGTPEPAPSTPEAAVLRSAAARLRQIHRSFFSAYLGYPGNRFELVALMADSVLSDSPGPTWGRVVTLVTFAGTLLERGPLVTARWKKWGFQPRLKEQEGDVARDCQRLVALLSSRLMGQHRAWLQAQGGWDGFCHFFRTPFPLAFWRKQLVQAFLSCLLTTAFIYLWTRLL
In the case of `CCC(=O)Nc1nc(C)c(-c2csc(Nc3cc(C)ccn3)n2)s1`, the displacement came to 11.9%.

Consider `COC(=O)c1ccc(/C=N/NC(=O)CC2C(=O)NN=C2C)cc1` (stereo not given), for which the displacement is -0.1%.

For `CCOC(=O)c1ccc(N2C(=O)c3ccc(C(=O)Nc4ccc(O)cc4C(=O)O)cc3C2=O)cc1`, the displacement is -1.6%.

As to `Cc1cc(NC(=O)c2cccc3ccccc23)ccc1NC(=O)c1ccccc1`, the displacement is -3.8%.

Consider `c1ccc(CNc2nc(-c3ccccc3)cc(-c3ccccc3)n2)cc1`, for which the displacement is -0.9%.

As for `COc1cc(C(c2ccc(C)o2)c2ccc(C)o2)c(O)c([N+](=O)[O-])c1`, the displacement came to 11.9%.

Turning to `COc1cccc(C2C(C(=O)OCCc3ccccc3)=C(C)NC3=C2C(=O)CCC3)c1OC` (stereo not given), the displacement was -0.3%.

As to `CCCc1c(C)nc2ccc(OC)cc2c1Cl`, the displacement came out at 2.9%.

Take `O=C(Cc1ccc(Cl)cc1)NCc1ccncc1`: the displacement was -6%.

For `O=P(O)(OC(c1ccccc1)C(F)(F)F)c1ccccc1` (stereo not given), the displacement was determined as 13.1%.

For the compound `O=C1NC(=S)S/C1=C\c1ccc(Oc2ccc([N+](=O)[O-])cn2)cc1`, the displacement worked out at 61.8%.

With `Cc1ccoc1C(=O)Nc1cccc2ccccc12`, the displacement was -7%.

With `CCC(CC)N=C1NS(=O)(=O)c2cc([N+](=O)[O-])ccc21`, the displacement is -3%.

Consider `O=C(COc1ccc(Br)cc1)Nc1ccncc1`, for which the displacement is -10.1%.

For the compound `CCC(C)NC(=O)c1ccc(CN2CCN(c3ccccc3)CC2)cc1` (stereo not given), the displacement is -1.9%.

As for `Cc1cc(NC(=O)c2cc(Cl)ccc2Cl)ccc1NC(=O)c1ccco1`, the displacement came out at 8.8%.

In the case of `O=C(/C=C\Nc1ccccc1O)c1ccc2c(c1)OCO2`, the displacement came to 8.3%.

On to `O=C(N/N=C/c1cc([N+](=O)[O-])c(N2CCOCC2)cc1N1CCOCC1)c1cccnc1`, for which the displacement stood at 8.4%.

Regarding `Cc1nc(SCc2ccccc2)nc2ccccc12`, the displacement turned out to be 13.5%.

On to `COc1cccc(N2C(=O)C3C4C=CC(C4=C4CCCCC4)C3C2=O)c1` (stereo not given), for which the displacement was -4.9%.

In the case of `COc1ccc(N(CC(=O)Nc2c(C)n(C)n(-c3ccccc3)c2=O)S(=O)(=O)c2ccc(C)cc2)cc1`, the displacement amounted to 7.2%.

Regarding `O=C(NCCCN1CCOCC1)c1cnn2c(C(F)(F)F)cc(-c3cccs3)nc12`, the displacement is 14.4%.

Regarding `O=C(Cc1ccccc1)Nc1ccc(Cl)cc1C(=O)O`, the displacement amounted to 9.8%.

As for `C/C(=N\N=C1\NC(=O)C(CC(=O)Nc2ccc(C)c(Cl)c2)S1)c1ccc(F)cc1` (stereo not given), the displacement was determined as 9.4%.

For the compound `COc1cccc(NC(=O)c2sc(-c3ccccc3)nc2C)c1`, the displacement was determined as 14.2%.

As to `CCOc1cc(OCC)cc(C(=O)Nc2ccc(C(=O)OC)cc2)c1`, the displacement was -1%.

With `CCOC(=O)c1c(NC(=O)/C=C/c2cccc([N+](=O)[O-])c2)sc2c1CCC2`, the displacement was determined as 24%.

In the case of `COc1ccc(Cl)cc1NC(=O)COc1c(C)cc(C)cc1C`, the displacement stood at 7.8%.

Consider `O=C(CCCC(=O)OCC(F)(F)C(F)F)Nc1nccs1`, for which the displacement was found to be 9.8%.

Turning to `CCc1cc2c(N3CCN(Cc4ccccc4)CC3)ncnc2s1`, the displacement was -6.3%.
